Measured values published in patent US20260042860A1 (Memorial Sloan Kettering, published 2026).

Target: T1, CD24 on CD24(+) DSRCT cell lines (BER, BER-luc, SK-DSRCT-2-luc) (human)
T1 construct: also called DSRCT cell line BER; BER cell line
T1 chain: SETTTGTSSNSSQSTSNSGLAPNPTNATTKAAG
Experiment: flow cytometry on DSRCT cell line BER
Procedure: CD24 BsAb binding to DSRCT cells. Binding of the humanized CD24 BsAb to target cells (DSRCT cell line BER) was evaluated by flow cytometry. […] The dotted line represents the level of background staining, above which is considered a positive signal.

binding result: binds
B1: humanized CD24×CD3 (huOKT3) BsAb (BC436) (bispecific antibody, human IgG1, kappa)
heavy: QVQLQESGPDLVKPSQTLSLTCTVSGYSITSGYTWHWIRQFPGNGLEWIGYIQYTGSTRYNPSLKSRVTISRDTSKNQFFLQLSSVTAADTAVYFCARGTTASFDYWGQGTLVTVSS[human IgG1 constant region with changes left out here]
light: DIVMTQSPSSLNVSLGERATIRCKSSQSLLYSSDQKNYLAWYQQKPGQPPKLLIYWASTRESGVPDRFSGSGSGTDFTLTISSLKAEDVAVYYCQQYFIYPLTFGVGTKLGLKRTVAAPSVFIFPPSDEQLKSGTASVVCLLNNFYPREAKVQWKVDNALQSGNSQESVTEQDSKDSTYSLSSTLTLSKADYEKHKVYACEVTHQGLSSPVTKSFNRGECTSGGGGSGGGGSGGGGSQVQLVQSGGGVVQPGRSLRLSCKASGYTFTRYTMHWVRQAPGKCLEWIGYINPSRGYTNYNQKFKDRFTISRDNSKNTAFLQMDSLRPEDTGVYFCARYYDDHYSLDYWGQGTPVTVSSGGGGSGGGGSGGGGSGGGGSGGGGSGGGGSDIQMTQSPSSLSASVGDRVTITCSASSSVSYMNWYQQTPGKAPKRWIYDTSKLASGVPSRFSGSGSGTDYTFTISSLQPEDIATYYCQQWSSNPFTFGCGTKLQITR
notes: IgG-[L]-scFv format on human IgG1; also called humanized CD24 BsAb; hu CD24 BsAb
